Data published in PubChem BioAssay AID540267 (National Center for Advancing Translational Sciences (NCATS), 2011).
Hit rate of the full screen: of about 340,000 compounds, about 530 (0.16%) were called active. This list was built around the results that the source calls inconclusive (neither active nor inactive); the mix of calls is not that of the screen. No stated cut-off is given here; in the data, active means activity change below about -80%; inconclusive means between about -30% and that limit; inactive means weaker than that.

Assay: Small Molecules that selectively kill Giardia lamblia: qHTS;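 further: parasites exposed to compound for two days anaerobically before the ATP read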
Settings: Giardia lamblia trophozoite viability; at 7.66 µM; hits give low values
Procedure, shortened: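 Giardia trophozoites, 100 cells per well, were exposed to compounds for 48 hrs at 37 deg C under anaerobic conditions; viability was then read as ATP content by bioluminescence after 15-30 min at room temperature.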
On the % scale 0 is the no-effect control and ±100 the full control effect.

Row | SMILES | activity change
1 | O=C(COC(=O)c1cccc(O)c1)NC(=O)Cc1ccccc1 | inconclusive: -37.8% [inhibitor]
2 | CC(C)c1ccc(Nc2nnc(SCC(=O)Nc3ncc(S(=O)(=O)c4ccc([N+](=O)[O-])cc4)s3)s2)cc1 | inconclusive: -50% [inhibitor]
3 | CCc1nonc1NC(=O)c1oc2c(C)c(C)ccc2c1C | inconclusive: -32.5% [inhibitor]
4 | NC1(C(=O)O)CC1 | inactive: 4.63%
5 | COc1ccc(-c2cc(=O)c3c(O)c(OC)c(OC)c(OC)c3o2)cc1 | inconclusive: -39% [inhibitor]
6 | CCn1c(-c2cccnc2)n[nH]c1=S | inactive: 12.7%
7 | CCOC(=O)N1C(=O)[C@](c2ccc(Cl)cc2)(C(C)C)N1C(=O)OCC | inactive: -17.3%
8 | Cc1cc(C)c(NC(=O)CN(C)C(=O)C2CC(=O)N(c3cccc4ccccc34)C2)c(C)c1 (stereo unspecified) | inactive: 1.25%
9 | O=C(/C=C/c1cccs1)NC(=S)NNC(=O)c1ccccc1O | inconclusive: -35.8% [inhibitor]
10 | CC(=O)NCCc1c[nH]c2ccc(OCC(O)CNC(C)(C)C)cc12 (stereo unspecified) | inactive: -6.45%
11 | O=S(=O)(Nc1ccc(-c2cn3ccccc3n2)cc1)c1ccccc1 | inconclusive: -35.9% [inhibitor]
12 | COC(=O)C1=C(C)NC(=S)NC1c1ccc(-c2cc(Cl)ccc2Cl)o1 (stereo unspecified) | inconclusive: -33.7% [inhibitor]
13 | Cc1c(CC(=O)N2CCN(C(=O)C3COc4ccccc4O3)CC2)c(=O)oc2cc(O)cc(O)c12 (stereo unspecified) | inconclusive: -40.1% [inhibitor]
14 | COCCn1c(C)cc(/C=C2\NC(=S)N(C)C2=O)c1C | inconclusive: -47% [inhibitor]
15 | CS(=O)(=O)c1ccc2nc(NC(=O)c3cccc([N+](=O)[O-])c3)sc2c1 | inconclusive: -47.8% [inhibitor]
16 | CC[C@H](C)[C@@H](C(=O)NCCCCCCCCCCC(=O)N1CCNCC1)n1cc(CCCCN=C(N)N)nn1 | inconclusive: -36.3% [inhibitor]
17 | CC1CCCCN1C(=O)CSc1nnc(-c2cccnc2)n1C1CCCCC1 (stereo unspecified) | inactive: 0.827%
18 | NS(=O)(=O)c1ccc(-c2ccc(/C=C3\NC(=S)NC3=O)o2)cc1 | inconclusive: -36% [inhibitor]
19 | Cc1cc(C)c(C#N)c(SCC(=O)CC(=O)OC(C)C)n1 | inconclusive: -37.7% [inhibitor]
20 | CCOC(=O)c1c(NC(=O)C2CCCO2)sc2c1CCC2 (stereo unspecified) | inactive: -4.5%
21 | Cc1ccc(-c2nc(N3CCN(S(=O)(=O)c4ccc(F)cc4)CC3)c3ccc(Cl)cc3n2)cc1 | inactive: -12%
